# Experimental data published in ChEMBL document CHEMBL1961873, “Compounds: GSK PKIS; Assays: Nanosyn kinase panel” (2012).
# For some of these results: The strong results were mostly taken out for another list; the other results follow. The list shows a part of the results, in another mix than the full data.
# Tests used:
# [1] = biological target: T1, Inhibitor of nuclear factor kappa-B kinase subunit epsilon (Homo sapiens) (UniProt Q14164); details: at 1 µM;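 also: reported values are averaged percent inhibition figures against human IKKε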
# T1 sequence (whole entry): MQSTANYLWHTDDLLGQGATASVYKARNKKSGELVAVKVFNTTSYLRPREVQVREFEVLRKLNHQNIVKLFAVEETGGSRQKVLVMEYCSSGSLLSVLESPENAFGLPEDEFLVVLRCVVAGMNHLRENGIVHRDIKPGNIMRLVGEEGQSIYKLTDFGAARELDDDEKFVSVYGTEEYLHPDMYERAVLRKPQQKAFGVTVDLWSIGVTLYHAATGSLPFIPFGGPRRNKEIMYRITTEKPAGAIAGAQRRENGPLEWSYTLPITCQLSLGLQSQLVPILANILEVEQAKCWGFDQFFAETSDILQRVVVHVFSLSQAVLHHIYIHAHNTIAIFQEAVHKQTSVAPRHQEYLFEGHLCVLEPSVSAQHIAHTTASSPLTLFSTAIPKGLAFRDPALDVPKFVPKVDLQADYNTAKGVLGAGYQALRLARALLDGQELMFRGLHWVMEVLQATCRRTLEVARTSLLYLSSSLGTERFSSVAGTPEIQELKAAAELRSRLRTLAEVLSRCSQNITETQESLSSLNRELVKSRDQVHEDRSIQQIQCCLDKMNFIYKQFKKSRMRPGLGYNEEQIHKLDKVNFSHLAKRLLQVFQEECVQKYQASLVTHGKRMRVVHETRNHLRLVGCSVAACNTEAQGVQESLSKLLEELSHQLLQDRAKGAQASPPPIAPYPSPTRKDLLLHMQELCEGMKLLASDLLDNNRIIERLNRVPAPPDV
# [2] = biological target: T2, Serine/threonine-protein kinase Nek1 (Homo sapiens) (UniProt Q96PY6); details: at 0.1 µM
# T2 sequence (whole entry): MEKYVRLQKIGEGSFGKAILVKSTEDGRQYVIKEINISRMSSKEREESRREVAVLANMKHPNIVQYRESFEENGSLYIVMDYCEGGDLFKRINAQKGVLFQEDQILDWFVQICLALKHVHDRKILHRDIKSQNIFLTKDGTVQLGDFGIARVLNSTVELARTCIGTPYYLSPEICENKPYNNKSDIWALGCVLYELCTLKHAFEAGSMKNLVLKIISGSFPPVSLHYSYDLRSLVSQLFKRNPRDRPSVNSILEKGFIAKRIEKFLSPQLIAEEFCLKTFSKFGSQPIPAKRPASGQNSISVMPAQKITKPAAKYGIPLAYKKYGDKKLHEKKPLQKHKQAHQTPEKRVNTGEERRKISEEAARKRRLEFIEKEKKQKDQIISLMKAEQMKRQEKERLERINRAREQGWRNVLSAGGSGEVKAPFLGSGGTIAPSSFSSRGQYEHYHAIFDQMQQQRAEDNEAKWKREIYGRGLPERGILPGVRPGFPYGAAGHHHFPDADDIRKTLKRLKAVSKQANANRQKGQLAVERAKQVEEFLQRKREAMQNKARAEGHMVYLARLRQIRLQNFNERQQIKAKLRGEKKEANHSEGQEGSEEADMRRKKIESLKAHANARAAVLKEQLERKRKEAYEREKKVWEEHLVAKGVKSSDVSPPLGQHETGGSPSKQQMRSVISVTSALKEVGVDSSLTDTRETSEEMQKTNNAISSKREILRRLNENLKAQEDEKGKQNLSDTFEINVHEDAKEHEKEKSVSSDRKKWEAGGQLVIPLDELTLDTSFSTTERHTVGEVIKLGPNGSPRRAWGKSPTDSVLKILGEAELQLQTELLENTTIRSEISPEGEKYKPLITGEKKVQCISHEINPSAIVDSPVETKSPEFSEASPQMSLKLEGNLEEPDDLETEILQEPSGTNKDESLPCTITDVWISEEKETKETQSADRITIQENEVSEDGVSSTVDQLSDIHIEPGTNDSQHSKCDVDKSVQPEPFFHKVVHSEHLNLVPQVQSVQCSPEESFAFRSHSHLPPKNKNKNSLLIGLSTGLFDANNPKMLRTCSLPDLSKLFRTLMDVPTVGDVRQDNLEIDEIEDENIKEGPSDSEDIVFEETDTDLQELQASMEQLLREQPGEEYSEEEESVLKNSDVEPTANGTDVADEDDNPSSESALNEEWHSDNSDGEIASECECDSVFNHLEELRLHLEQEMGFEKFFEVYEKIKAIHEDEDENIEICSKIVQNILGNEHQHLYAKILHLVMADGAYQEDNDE
# [3] = biological target: T2, Serine/threonine-protein kinase Nek1 (Homo sapiens); details: at 1 µM
# [4] = biological target: T3, Serine/threonine-protein kinase Nek2 (Homo sapiens) (UniProt P51955); details: at 0.1 µM
# T3 sequence (whole entry): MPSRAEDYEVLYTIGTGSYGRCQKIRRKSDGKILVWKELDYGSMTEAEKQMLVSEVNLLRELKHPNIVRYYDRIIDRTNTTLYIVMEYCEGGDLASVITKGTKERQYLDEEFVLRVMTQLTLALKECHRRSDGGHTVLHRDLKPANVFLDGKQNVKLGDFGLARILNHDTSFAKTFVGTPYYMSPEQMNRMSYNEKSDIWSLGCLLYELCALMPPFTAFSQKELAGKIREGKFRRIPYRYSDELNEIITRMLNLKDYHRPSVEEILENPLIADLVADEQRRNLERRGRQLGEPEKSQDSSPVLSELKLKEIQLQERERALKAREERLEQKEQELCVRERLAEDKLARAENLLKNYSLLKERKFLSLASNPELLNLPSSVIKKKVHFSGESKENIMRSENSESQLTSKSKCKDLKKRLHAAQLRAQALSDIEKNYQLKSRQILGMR
# [5] = biological target: T3, Serine/threonine-protein kinase Nek2 (Homo sapiens); details: at 1 µM
# [6] = biological target: T4, Serine/threonine-protein kinase Nek6 (Homo sapiens) (UniProt Q9HC98); details: at 0.1 µM
# T4 sequence (whole entry): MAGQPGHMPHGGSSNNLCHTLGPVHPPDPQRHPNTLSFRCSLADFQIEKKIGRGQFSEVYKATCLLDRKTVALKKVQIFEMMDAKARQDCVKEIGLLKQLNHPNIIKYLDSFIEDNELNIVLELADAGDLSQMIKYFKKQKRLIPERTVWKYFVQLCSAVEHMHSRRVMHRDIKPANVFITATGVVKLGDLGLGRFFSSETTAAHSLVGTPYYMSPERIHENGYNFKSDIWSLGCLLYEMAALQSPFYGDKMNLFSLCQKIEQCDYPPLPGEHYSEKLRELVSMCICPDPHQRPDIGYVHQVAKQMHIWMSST
# [7] = biological target: T4, Serine/threonine-protein kinase Nek6 (Homo sapiens); details: at 1 µM
# [8] = biological target: Serine/threonine-protein kinase Nek7 (Homo sapiens) (UniProt Q8TDX7); details: at 0.1 µM
# Chain of UniProt Q8TDX7 (Q8TDX7 whole entry, looked up): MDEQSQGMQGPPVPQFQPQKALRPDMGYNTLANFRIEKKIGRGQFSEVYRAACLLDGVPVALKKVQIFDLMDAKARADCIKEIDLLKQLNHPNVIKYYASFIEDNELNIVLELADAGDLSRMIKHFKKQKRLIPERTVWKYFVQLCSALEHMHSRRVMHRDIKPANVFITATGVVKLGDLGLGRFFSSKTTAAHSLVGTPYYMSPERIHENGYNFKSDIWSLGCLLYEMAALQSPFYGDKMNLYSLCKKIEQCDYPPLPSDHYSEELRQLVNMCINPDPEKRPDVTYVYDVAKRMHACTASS
# [9] = biological target: Serine/threonine-protein kinase Nek7 (Homo sapiens) (UniProt Q8TDX7); details: at 1 µM
# [10] = biological target: T5, Serine/threonine-protein kinase Nek9 (Homo sapiens) (UniProt Q8TD19); details: at 0.1 µM
# T5 sequence (whole entry): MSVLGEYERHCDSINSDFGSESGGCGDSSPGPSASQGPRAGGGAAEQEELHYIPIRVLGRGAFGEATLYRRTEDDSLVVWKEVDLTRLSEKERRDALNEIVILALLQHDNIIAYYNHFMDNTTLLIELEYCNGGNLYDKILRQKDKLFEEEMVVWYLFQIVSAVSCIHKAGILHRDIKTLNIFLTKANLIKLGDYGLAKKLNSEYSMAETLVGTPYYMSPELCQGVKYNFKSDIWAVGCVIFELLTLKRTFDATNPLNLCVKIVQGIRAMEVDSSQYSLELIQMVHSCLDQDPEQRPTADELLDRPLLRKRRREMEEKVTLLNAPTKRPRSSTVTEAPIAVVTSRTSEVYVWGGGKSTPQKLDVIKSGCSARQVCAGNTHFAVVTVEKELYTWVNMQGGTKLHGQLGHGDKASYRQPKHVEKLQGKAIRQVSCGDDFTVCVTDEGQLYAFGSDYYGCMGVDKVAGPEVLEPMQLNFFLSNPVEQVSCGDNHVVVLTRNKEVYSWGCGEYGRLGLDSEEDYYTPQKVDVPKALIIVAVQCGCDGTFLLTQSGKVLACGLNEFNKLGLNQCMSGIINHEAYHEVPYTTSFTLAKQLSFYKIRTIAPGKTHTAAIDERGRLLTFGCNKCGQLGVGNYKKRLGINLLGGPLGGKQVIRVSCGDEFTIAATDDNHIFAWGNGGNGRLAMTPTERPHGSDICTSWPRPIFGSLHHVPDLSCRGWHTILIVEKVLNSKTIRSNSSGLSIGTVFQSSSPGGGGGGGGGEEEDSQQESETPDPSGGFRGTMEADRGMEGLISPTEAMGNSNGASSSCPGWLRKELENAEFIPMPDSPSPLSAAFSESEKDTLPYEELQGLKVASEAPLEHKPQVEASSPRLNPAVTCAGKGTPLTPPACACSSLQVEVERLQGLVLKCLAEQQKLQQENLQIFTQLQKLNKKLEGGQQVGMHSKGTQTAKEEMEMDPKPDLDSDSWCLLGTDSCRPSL
# [11] = biological target: T5, Serine/threonine-protein kinase Nek9 (Homo sapiens); details: at 1 µM
# [12] = biological target: Serine/threonine-protein kinase PLK1 (Homo sapiens) (UniProt P53350); details: at 0.1 µM
# Chain of UniProt P53350 (P53350 whole entry): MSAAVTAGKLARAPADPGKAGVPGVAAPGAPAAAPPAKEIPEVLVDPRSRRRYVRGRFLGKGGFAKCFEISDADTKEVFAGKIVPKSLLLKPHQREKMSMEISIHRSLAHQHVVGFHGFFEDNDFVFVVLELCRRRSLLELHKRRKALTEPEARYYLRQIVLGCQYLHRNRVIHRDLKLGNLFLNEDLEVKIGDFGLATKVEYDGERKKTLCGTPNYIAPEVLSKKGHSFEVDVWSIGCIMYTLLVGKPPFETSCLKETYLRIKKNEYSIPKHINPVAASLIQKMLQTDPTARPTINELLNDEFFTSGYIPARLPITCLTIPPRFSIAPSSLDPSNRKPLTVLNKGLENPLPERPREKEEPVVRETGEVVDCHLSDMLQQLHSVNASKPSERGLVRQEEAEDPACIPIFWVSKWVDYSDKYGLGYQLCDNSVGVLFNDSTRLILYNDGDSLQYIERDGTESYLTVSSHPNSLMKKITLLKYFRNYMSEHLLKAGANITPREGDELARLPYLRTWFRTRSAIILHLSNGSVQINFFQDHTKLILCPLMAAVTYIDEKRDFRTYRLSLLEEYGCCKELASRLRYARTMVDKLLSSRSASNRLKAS
# [13] = biological target: Serine/threonine-protein kinase PLK1 (Homo sapiens) (UniProt P53350); details: at 1 µM
# [14] = biological target: T6, Dual specificity protein kinase TTK (Homo sapiens) (UniProt P33981); details: at 0.1 µM
# T6 sequence (whole entry): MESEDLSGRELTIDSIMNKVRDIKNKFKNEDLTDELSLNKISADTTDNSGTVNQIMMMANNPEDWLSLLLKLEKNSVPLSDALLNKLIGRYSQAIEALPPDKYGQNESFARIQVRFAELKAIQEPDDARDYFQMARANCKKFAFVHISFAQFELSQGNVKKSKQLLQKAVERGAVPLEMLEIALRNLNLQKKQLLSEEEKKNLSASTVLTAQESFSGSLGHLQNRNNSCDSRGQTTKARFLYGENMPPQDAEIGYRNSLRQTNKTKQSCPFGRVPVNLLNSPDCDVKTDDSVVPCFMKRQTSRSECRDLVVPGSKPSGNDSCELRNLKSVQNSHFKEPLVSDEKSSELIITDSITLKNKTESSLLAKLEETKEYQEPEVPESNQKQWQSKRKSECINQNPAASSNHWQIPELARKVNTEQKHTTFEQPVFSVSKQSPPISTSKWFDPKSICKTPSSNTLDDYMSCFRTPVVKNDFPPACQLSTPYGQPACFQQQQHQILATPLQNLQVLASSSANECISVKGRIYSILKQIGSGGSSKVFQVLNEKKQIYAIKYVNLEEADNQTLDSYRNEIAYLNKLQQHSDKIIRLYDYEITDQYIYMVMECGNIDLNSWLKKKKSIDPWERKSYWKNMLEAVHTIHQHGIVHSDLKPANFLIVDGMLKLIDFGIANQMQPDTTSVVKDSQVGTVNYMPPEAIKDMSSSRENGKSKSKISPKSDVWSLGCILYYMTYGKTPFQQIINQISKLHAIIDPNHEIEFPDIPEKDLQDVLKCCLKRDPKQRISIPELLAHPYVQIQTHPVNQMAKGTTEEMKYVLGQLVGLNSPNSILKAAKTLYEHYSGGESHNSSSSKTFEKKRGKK
# [15] = tested on: T7, Receptor-type tyrosine-protein kinase FLT3 (Homo sapiens), P36888 [D835Y]; details: at 1 µM
# T7 sequence (whole entry): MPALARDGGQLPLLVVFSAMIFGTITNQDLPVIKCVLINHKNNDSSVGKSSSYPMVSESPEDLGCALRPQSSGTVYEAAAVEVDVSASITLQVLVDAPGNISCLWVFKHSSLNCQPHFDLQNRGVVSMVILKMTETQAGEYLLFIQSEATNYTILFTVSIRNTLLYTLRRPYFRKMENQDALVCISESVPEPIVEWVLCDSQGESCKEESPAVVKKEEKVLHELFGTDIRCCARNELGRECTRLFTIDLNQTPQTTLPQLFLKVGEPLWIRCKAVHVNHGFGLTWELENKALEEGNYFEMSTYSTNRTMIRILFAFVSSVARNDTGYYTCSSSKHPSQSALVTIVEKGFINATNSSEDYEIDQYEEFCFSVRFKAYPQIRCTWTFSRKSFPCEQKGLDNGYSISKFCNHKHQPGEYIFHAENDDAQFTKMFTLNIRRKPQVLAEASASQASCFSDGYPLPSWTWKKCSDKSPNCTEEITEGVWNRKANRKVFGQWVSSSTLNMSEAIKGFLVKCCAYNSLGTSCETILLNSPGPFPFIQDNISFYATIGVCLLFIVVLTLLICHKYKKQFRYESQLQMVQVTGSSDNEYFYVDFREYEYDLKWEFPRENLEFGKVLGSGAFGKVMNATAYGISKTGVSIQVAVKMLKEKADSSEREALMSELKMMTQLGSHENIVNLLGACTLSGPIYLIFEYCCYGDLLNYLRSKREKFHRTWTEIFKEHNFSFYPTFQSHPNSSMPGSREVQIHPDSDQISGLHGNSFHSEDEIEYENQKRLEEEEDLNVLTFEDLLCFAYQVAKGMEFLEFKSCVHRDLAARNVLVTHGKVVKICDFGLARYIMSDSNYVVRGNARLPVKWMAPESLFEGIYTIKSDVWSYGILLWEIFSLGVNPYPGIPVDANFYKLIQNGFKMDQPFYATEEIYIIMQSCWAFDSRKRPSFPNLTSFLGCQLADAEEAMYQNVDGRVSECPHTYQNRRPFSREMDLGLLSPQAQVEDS
# [16] = biological target: Vascular endothelial growth factor receptor 3 (Homo sapiens) (UniProt P35916); details: at 0.1 µM
# Chain of UniProt P35916 (P35916 whole entry): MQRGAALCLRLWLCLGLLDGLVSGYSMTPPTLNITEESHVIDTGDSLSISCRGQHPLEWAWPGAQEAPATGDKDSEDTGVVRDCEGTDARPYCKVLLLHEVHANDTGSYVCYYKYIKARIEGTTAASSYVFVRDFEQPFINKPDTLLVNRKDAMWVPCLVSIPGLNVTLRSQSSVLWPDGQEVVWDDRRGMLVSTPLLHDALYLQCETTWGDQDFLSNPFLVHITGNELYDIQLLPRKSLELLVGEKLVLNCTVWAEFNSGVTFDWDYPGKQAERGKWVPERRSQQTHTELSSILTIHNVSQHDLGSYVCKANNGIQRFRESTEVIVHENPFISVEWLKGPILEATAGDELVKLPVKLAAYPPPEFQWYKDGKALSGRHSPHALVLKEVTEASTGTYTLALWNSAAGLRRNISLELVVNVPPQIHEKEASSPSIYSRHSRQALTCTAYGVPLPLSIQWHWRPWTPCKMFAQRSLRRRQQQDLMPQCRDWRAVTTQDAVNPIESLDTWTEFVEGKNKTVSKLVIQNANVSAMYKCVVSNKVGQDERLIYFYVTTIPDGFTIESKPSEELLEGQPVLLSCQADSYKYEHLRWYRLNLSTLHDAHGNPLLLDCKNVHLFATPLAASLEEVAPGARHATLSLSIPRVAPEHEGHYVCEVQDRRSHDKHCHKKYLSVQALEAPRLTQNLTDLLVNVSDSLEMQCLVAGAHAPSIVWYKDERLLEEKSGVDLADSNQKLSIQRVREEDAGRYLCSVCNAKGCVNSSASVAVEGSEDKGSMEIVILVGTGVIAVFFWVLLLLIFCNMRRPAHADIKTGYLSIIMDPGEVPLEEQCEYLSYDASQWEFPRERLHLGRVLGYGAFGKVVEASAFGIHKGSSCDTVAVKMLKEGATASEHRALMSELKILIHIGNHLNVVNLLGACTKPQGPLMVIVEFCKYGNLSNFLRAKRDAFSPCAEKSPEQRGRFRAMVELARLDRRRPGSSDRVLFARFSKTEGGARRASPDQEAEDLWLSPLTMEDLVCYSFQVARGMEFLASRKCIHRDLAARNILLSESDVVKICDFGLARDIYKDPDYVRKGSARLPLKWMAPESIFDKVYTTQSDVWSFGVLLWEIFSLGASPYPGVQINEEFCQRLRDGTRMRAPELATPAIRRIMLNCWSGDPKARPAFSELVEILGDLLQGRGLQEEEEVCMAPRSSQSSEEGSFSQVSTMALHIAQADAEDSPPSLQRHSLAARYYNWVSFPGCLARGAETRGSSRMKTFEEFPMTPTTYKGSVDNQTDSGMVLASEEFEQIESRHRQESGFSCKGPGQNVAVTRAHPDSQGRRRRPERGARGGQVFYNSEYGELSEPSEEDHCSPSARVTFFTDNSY
# [17] = biological target: Vascular endothelial growth factor receptor 3 (Homo sapiens) (UniProt P35916); details: at 1 µM
# [18] = biological target: Macrophage colony-stimulating factor 1 receptor (Homo sapiens) (UniProt P07333); details: at 0.1 µM
# Chain of UniProt P07333 (P07333 whole entry): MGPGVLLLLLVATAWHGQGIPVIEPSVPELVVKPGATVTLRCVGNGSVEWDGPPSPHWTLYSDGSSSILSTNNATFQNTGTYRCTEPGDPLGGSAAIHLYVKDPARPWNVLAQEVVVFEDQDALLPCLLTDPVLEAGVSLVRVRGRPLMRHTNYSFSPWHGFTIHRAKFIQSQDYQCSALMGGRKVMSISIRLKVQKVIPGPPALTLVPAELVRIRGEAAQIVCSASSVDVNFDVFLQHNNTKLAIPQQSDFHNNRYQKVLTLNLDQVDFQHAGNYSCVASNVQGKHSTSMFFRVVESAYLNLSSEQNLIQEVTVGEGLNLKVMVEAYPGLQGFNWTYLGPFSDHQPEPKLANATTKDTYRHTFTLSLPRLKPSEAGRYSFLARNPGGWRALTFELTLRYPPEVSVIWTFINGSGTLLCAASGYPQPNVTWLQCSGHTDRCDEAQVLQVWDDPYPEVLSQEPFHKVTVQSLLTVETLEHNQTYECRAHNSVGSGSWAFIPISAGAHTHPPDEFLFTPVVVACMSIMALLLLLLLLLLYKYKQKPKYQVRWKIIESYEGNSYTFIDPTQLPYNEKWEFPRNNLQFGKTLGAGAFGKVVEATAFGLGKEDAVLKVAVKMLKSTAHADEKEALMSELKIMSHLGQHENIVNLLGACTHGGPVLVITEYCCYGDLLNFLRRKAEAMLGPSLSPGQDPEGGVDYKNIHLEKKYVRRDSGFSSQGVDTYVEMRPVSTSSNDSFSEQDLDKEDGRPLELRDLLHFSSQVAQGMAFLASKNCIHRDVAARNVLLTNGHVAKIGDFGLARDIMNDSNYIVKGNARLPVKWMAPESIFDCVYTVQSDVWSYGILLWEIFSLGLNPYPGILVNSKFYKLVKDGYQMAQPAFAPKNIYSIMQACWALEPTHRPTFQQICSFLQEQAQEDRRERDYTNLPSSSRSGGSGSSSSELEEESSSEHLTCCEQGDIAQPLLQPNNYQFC
# [19] = biological target: Macrophage colony-stimulating factor 1 receptor (Homo sapiens) (UniProt P07333); details: at 1 µM
# [20] = biological target: Tyrosine-protein kinase Fyn (Homo sapiens) (UniProt P06241); details: at 0.1 µM
# Chain of UniProt P06241 (P06241 whole entry, looked up): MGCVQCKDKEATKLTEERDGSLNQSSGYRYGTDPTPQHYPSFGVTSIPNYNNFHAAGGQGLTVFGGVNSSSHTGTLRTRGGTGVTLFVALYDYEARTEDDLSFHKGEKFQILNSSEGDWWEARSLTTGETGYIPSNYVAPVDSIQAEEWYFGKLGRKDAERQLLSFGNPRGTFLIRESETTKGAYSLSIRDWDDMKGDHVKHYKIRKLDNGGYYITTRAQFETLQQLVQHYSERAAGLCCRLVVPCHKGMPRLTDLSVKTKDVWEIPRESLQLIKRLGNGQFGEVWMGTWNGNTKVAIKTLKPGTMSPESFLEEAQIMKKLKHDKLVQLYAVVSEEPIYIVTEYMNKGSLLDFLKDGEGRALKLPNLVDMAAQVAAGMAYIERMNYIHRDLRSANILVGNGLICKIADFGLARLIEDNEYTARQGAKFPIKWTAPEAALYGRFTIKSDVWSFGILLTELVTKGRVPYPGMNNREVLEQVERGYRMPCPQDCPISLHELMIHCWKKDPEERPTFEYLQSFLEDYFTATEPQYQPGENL
Structure (SMILES),inhibition [1] [%],inhibition [2] [%],inhibition [3] [%],inhibition [4] [%],inhibition [5] [%],inhibition [6] [%],inhibition [7] [%],inhibition [8] [%],inhibition [9] [%],inhibition [10] [%],inhibition [11] [%],inhibition [12] [%],inhibition [13] [%],inhibition [14] [%],inhibition [15] [%],inhibition [16] [%],inhibition [17] [%],inhibition [18] [%],inhibition [19] [%],inhibition [20] [%]
O=C1NC(=O)C(c2ccccc2)=C1Nc1ccccc1,7.73,3.46,5.35,6.03,7.56,1.23,1.99,4.69,7.49,10.7,16.3,4.07,3.37,9.86,2.56,6.24,11.6,2.47,4.84,2.43
O=C1NC(=O)C(c2ccccc2Cl)=C1Nc1cc(Cl)c(O)c(Cl)c1,9.8,1.65,3.04,3.22,3.16,3.32,3.77,4.4,-3.22,0.96,7.1,0.91,1.83,13.6,2.79,3.13,1.9,4.22,5.16,-0.84
